Reference: the supplement of paper PMC4604168 (melanoma cell lines)
This is one part of the list. Repeats are few or missing, and single values can be far off.

tested on: RVH-421; assay: cell count relative to DMSO control; melanoma cells; higher = more viable cells; details: library dose: low library concentration; 72 h
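Also: cell number obtained by counting DAPI-stained nuclei in high-throughput microscope images with image analysis software, screen run in 1,536-well plates.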

Compound	cell count [%]
Nc1ccn([C@@H]2O[C@H](CO)[C@@H](O)C2(F)F)c(=O)n1 [gemcitabine] + O=C1NC(=O)/C(=C/c2ccc(-c3ccc(F)cc3O)o2)S1 [AS252424] (first compound 0.0004 µM, partner dose 1 µM)	89.4
Nc1ccn([C@@H]2O[C@H](CO)[C@@H](O)C2(F)F)c(=O)n1 [gemcitabine] + CC1(C)NC(=O)N(c2ccc([N+](=O)[O-])c(C(F)(F)F)c2)C1=O [nilutamide] (first compound 0.0004 µM, partner dose 1 µM)	110
Nc1ncn([C@H]2C[C@H](O)[C@@H](CO)O2)c(=O)n1 [decitabine] + NCC(=O)Nc1ccc(-n2nc(C(F)(F)F)cc2-c2ccc3c(ccc4ccccc43)c2)cc1 [OSU03012] (first compound 0.1 µM, partner dose 1 µM)	69.9
Nc1ccn([C@@H]2O[C@H](CO)[C@@H](O)C2(F)F)c(=O)n1 [gemcitabine] + CC(C)CCN1c2nc(Nc3cc(F)c(O)c(F)c3)ncc2N(C)C(=O)C1C [BID1870] (first compound 0.0004 µM, partner dose 0.2 µM)	82
CC(=O)c1c(C)c2cnc(Nc3ccc(N4CCNCC4)cn3)nc2n(C2CCCC2)c1=O [palbociclib] + COc1cc2c(Oc3ccc4[nH]c(C)cc4c3F)ncnc2cc1OCCCN1CCCC1 [cediranib] (first compound 0.04 µM, partner dose 0.4 µM)	89.3
Nc1nc(F)nc2c1ncn2[C@@H]1O[C@H](CO)[C@@H](O)[C@@H]1O [fludarabine] + O=C(O)C(=O)Nc1sc2c(c1C(=O)O)CCNC2 [TCS401] (first compound 0.2 µM, partner dose 1.66667 µM)	75.1
CC(=O)c1c(C)c2cnc(Nc3ccc(N4CCNCC4)cn3)nc2n(C2CCCC2)c1=O [palbociclib] + Cn1cc(/C=C2\C(=O)Nc3cccnc32)c2ccccc21 [GW441756] (first compound 0.04 µM, partner dose 0.4 µM)	97.4
Nc1ccn([C@@H]2O[C@H](CO)[C@@H](O)C2(F)F)c(=O)n1 [gemcitabine] + Oc1nc(-c2ccc(C(F)(F)F)cc2)nc2c1CSCC2 [XAV939] (first compound 0.0004 µM, partner dose 2 µM)	83.4
CC(=O)O[C@@]12CO[C@@H]1C[C@H](O)[C@@]1(C)C(=O)[C@H](O)C3=C(C)[C@@H](OC(=O)[C@H](O)[C@@H](NC(=O)OC(C)(C)C)c4ccccc4)C[C@@](O)([C@@H](OC(=O)c4ccccc4)[C@H]21)C3(C)C [Docetaxel] + Cn1c(=O)n(-c2ccc(C(C)(C)C#N)cc2)c2c3cc(-c4cnc5ccccc5c4)ccc3ncc21 [NVP-BEZ235] (first compound 0.0001 µM, partner dose 0.004 µM)	57.6
CC(=O)c1c(C)c2cnc(Nc3ccc(N4CCNCC4)cn3)nc2n(C2CCCC2)c1=O [palbociclib] + Cc1cc([N+](=O)[O-])ccc1NS(=O)(=O)c1cc(Cl)ccc1Cl [FH535] (first compound 0.04 µM, partner dose 1 µM)	77.2
CC(=O)O[C@@]12CO[C@@H]1C[C@H](O)[C@@]1(C)C(=O)[C@H](O)C3=C(C)[C@@H](OC(=O)[C@H](O)[C@@H](NC(=O)OC(C)(C)C)c4ccccc4)C[C@@](O)([C@@H](OC(=O)c4ccccc4)[C@H]21)C3(C)C [Docetaxel] + N#Cc1c(O)c2c(-c3ccc(-c4ccccc4O)cc3)csc2[nH]c1=O [A769662] (first compound 0.0001 µM, partner dose 2 µM)	72.1
CC(=O)O[C@@]12CO[C@@H]1C[C@H](O)[C@@]1(C)C(=O)[C@H](O)C3=C(C)[C@@H](OC(=O)[C@H](O)[C@@H](NC(=O)OC(C)(C)C)c4ccccc4)C[C@@](O)([C@@H](OC(=O)c4ccccc4)[C@H]21)C3(C)C [Docetaxel] + CN(C)S(=O)(=O)c1ccc2c(c1)/C(=C/c1cc3c([nH]1)CCCC3)C(=O)N2 [SU6656] (first compound 0.0001 µM, partner dose 0.4 µM)	66.5
Nc1ncn([C@H]2C[C@H](O)[C@@H](CO)O2)c(=O)n1 [decitabine] + CN(NC(=O)CC(=O)NN(C)C(=S)c1ccccc1)C(=S)c1ccccc1 [STA4783] (first compound 0.1 µM, partner dose 0.006 µM)	93.1
